Laboratory results: the supplement of paper PMC11741623
The list shows a part of the results. Interaction screen of human proteins with wild-type SARS-CoV-2 proteins by split-DHFR complementation in yeast, 1 µg/mL methotrexate. Value = fitness of the pair (three or more lineages) minus that of the viral protein without a human partner, on a scale set by negative (0) and fused positive (1) controls, mean of up to three cultures; higher = more likely to interact. Active = false discovery rate below 0.05 (one-sided t-test) in at least one culture. Nearly all pairs are not hits, and differences among them are mostly noise (correlation between cultures about 0.3); most hits were seen in one culture only. Human sequences are the Swiss-Prot entries looked up by gene name; the clone may be another isoform. NSP2 values were corrected by the authors for a growth advantage. Listed are human proteins with a hit and a random twelfth of the others.

Experiments:
Assay in all cases: yeast fitness gain over the viral ORF with no human partner (scaled fitness); higher = more likely to interact
SARS-CoV-2 M = target: SARS-CoV-2 M
Protocol: (§1)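 Split mouse DHFR complementation in pooled diploid yeast: human ORFeome clones carry one fragment and viral ORFs the other; barcoded lineages compete in 1 µg/mL methotrexate and fitness is read by barcode sequencing in up to three cultures.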

SARS-CoV-2 N = target: SARS-CoV-2 N
Protocol: as §1

SARS-CoV-2 NSP1 = target: SARS-CoV-2 NSP1
Protocol: as §1

SARS-CoV-2 NSP10 = target: SARS-CoV-2 NSP10
Protocol: as §1

SARS-CoV-2 NSP12 = target: SARS-CoV-2 NSP12
Protocol: as §1

SARS-CoV-2 NSP13 = target: SARS-CoV-2 NSP13
Protocol: as §1

SARS-CoV-2 NSP15 = target: SARS-CoV-2 NSP15
Protocol: as §1

SARS-CoV-2 NSP16 = target: SARS-CoV-2 NSP16
Protocol: as §1

SARS-CoV-2 NSP2 = target: SARS-CoV-2 NSP2
Protocol: as §1

SARS-CoV-2 NSP5 = target: SARS-CoV-2 NSP5
Protocol: as §1

SARS-CoV-2 NSP6 = target: SARS-CoV-2 NSP6
Protocol: as §1

SARS-CoV-2 NSP7 = target: SARS-CoV-2 NSP7
Protocol: as §1

SARS-CoV-2 NSP8 = target: SARS-CoV-2 NSP8
Protocol: as §1

SARS-CoV-2 ORF10 = target: SARS-CoV-2 ORF10
Protocol: as §1

SARS-CoV-2 ORF3B = target: SARS-CoV-2 ORF3B
Protocol: as §1

SARS-CoV-2 ORF6 = target: SARS-CoV-2 ORF6
Protocol: as §1

SARS-CoV-2 ORF7A = target: SARS-CoV-2 ORF7A
Protocol: as §1

SARS-CoV-2 ORF7B = target: SARS-CoV-2 ORF7B
Protocol: as §1

SARS-CoV-2 ORF8 = target: SARS-CoV-2 ORF8
Protocol: as §1

SARS-CoV-2 ORF9B = target: SARS-CoV-2 ORF9B
Protocol: as §1

[1] = target: SARS-CoV-2 ORF9Bwu (the 73-codon ORF)
Protocol: as §1

SARS-CoV-2 S = target: SARS-CoV-2 S
Protocol: as §1

SARS-CoV-2 NSP9 = target: SARS-CoV-2 NSP9
Protocol: as §1

SARS-CoV-2 ORF3A = target: SARS-CoV-2 ORF3A
Protocol: as §1

SARS-CoV-2 NSP14 = target: SARS-CoV-2 NSP14
Protocol: as §1

SARS-CoV-2 NSP4 = target: SARS-CoV-2 NSP4
Protocol: as §1

Measured: yeast fitness gain

B1: TRAPPC12, Q8WVT3 (protein)
chain: MEDAGGGEETPAPEAPHPPQLAPPEEQGLLFQEETIDLGGDEFGSEENETASEGSSPLADKLNEHMMESVLISDSPNSEGDAGDLGRVRDEAEPGGEGDPGPEPAGTPSPSGEADGDCAPEDAAPSSGGAPRQDAAREVPGSEAARPEQEPPVAEPVPVCTIFSQRAPPASGDGFEPQMVKSPSFGGASEASARTPPQVVQPSPSLSTFFGDTAASHSLASDFFDSFTTSAFISVSNPGAGSPAPASPPPLAVPGTEGRPEPVAMRGPQAAAPPASPEPFAHIQAVFAGSDDPFATALSMSEMDRRNDAWLPGEATRGVLRAVATQQRGAVFVDKENLTMPGLRFDNIQGDAVKDLMLRFLGEKAAAKRQVLNADSVEQSFVGLKQLISCRNWRAAVDLCGRLLTAHGQGYGKSGLLTSHTTDSLQLWFVRLALLVKLGLFQNAEMEFEPFGNLDQPDLYYEYYPHVYPGRRGSMVPFSMRILHAELQQYLGNPQESLDRLHKVKTVCSKILANLEQGLAEDGGMSSVTQEGRQASIRLWRSRLGRVMYSMANCLLLMKDYVLAVEAYHSVIKYYPEQEPQLLSGIGRISLQIGDIKTAEKYFQDVEKVTQKLDGLQGKIMVLMNSAFLHLGQNNFAEAHRFFTEILRMDPRNAVANNNAAVCLLYLGKLKDSLRQLEAMVQQDPRHYLHESVLFNLTTMYELESSRSMQKKQALLEAVAGKEGDSFNTQCLKLA
inactive: SARS-CoV-2 M -0.0999 | SARS-CoV-2 N 0.02 | SARS-CoV-2 NSP1 = 0.00289 | SARS-CoV-2 NSP10 = -0.0285 | SARS-CoV-2 NSP12 = 0.0737 | SARS-CoV-2 NSP13 = 0.0455 | SARS-CoV-2 NSP15 = 0.038 | SARS-CoV-2 NSP16 = -0.0747 | SARS-CoV-2 NSP2 = -0.0896 | SARS-CoV-2 NSP5 = 0.0758 | SARS-CoV-2 NSP6 = -0.00758 | SARS-CoV-2 NSP7 = 0.0269 | SARS-CoV-2 NSP8 = -0.14 | SARS-CoV-2 ORF10 = 0.049 | SARS-CoV-2 ORF3B -0.0547 | SARS-CoV-2 ORF6 = -0.00286 | SARS-CoV-2 ORF7A -0.132 | SARS-CoV-2 ORF7B 0.0291 | SARS-CoV-2 ORF8 = 0.0132 | SARS-CoV-2 ORF9B -0.109 | [1] 0.104 | SARS-CoV-2 S 0.0326

B2: SPATA12, Q7Z6I5 (protein)
chain: MSSSALTCGSTLEKSGDTWEMKALDSSRLVPWPPRGLGSSTQHPNKPHCALASCQGPGVLPGAASALPELTFQGDVCQSETCQRYLQAAISLDIAVSQINLLGRPSSPPALLIQQGSCEQVIHNSTPQFLGMEDGDNERTTGWLWRLCEDIDAEPSSTGCSRSNQLTFTEGCFVRSLSTVYSNTHIHTHL
inactive: SARS-CoV-2 M -0.0937 | SARS-CoV-2 NSP1 = -0.164 | SARS-CoV-2 NSP10 = -0.093 | SARS-CoV-2 NSP12 = -0.0771 | SARS-CoV-2 NSP13 = 0.0756 | SARS-CoV-2 NSP15 = -0.278 | SARS-CoV-2 NSP16 = 0.0308 | SARS-CoV-2 NSP2 = -0.12 | SARS-CoV-2 NSP5 = -0.0133 | SARS-CoV-2 NSP6 = 0.0384 | SARS-CoV-2 NSP7 = 0.0433 | SARS-CoV-2 NSP8 = -0.0619 | SARS-CoV-2 NSP9 = -0.0934 | SARS-CoV-2 ORF10 = 0.0046 | SARS-CoV-2 ORF3A 0.00542 | SARS-CoV-2 ORF3B -0.00256 | SARS-CoV-2 ORF6 = -0.144 | SARS-CoV-2 ORF7A 0.0402 | SARS-CoV-2 ORF7B -0.0449 | SARS-CoV-2 ORF8 = 0.0157 | SARS-CoV-2 ORF9B 0.0106 | [1] -0.07 | SARS-CoV-2 S -0.0147

B3: UTS2, O95399 (protein)
chain: MYKLASCCLLFIGFLNPLLSLPLLDSREISFQLSAPHEDARLTPEELERASLLQILPEMLGAERGDILRKADSSTNIFNPRGNLRKFQDFSGQDPNILLSHLLARIWKPYKKRETPDCFWKYCV
inactive: SARS-CoV-2 M -0.106 | SARS-CoV-2 NSP10 = 0.0192 | SARS-CoV-2 NSP12 = 0.127 | SARS-CoV-2 NSP13 = 0.02 | SARS-CoV-2 NSP14 = -0.0208 | SARS-CoV-2 NSP15 = 0.0666 | SARS-CoV-2 NSP2 = -0.0472 | SARS-CoV-2 NSP4 = -0.0795 | SARS-CoV-2 NSP5 = 0.0473 | SARS-CoV-2 NSP6 = 0.0951 | SARS-CoV-2 NSP7 = 0.0566 | SARS-CoV-2 NSP8 = -0.091 | SARS-CoV-2 ORF10 = 0.0112 | SARS-CoV-2 ORF3B 0.00441 | SARS-CoV-2 ORF6 = -0.0382 | SARS-CoV-2 ORF7A 0.0378 | SARS-CoV-2 ORF7B -0.000801 | SARS-CoV-2 ORF8 = -0.0863 | SARS-CoV-2 ORF9B 0.00572 | [1] -0.0462 | SARS-CoV-2 S 0.0547

B4: CCR1, P32246 (protein)
chain: METPNTTEDYDTTTEFDYGDATPCQKVNERAFGAQLLPPLYSLVFVIGLVGNILVVLVLVQYKRLKNMTSIYLLNLAISDLLFLFTLPFWIDYKLKDDWVFGDAMCKILSGFYYTGLYSEIFFIILLTIDRYLAIVHAVFALRARTVTFGVITSIIIWALAILASMPGLYFSKTQWEFTHHTCSLHFPHESLREWKLFQALKLNLFGLVLPLLVMIICYTGIIKILLRRPNEKKSKAVRLIFVIMIIFFLFWTPYNLTILISVFQDFLFTHECEQSRHLDLAVQVTEVIAYTHCCVNPVIYAFVGERFRKYLRQLFHRRVAVHLVKWLPFLSVDRLERVSSTSPSTGEHELSAGF
inactive: SARS-CoV-2 M 0.0412 | SARS-CoV-2 NSP1 = 0.0262 | SARS-CoV-2 NSP10 = -0.0527 | SARS-CoV-2 NSP12 = 0.0494 | SARS-CoV-2 NSP13 = 0.0161 | SARS-CoV-2 NSP14 = 0.0944 | SARS-CoV-2 NSP15 = -0.0387 | SARS-CoV-2 NSP16 = 0.0541 | SARS-CoV-2 NSP2 = -0.11 | SARS-CoV-2 NSP4 = 0.149 | SARS-CoV-2 NSP5 = -0.0085 | SARS-CoV-2 NSP6 = 0.0369 | SARS-CoV-2 NSP7 = 0.111 | SARS-CoV-2 NSP8 = -0.0356 | SARS-CoV-2 NSP9 = -0.00873 | SARS-CoV-2 ORF10 = 0.00265 | SARS-CoV-2 ORF3A 0.0272 | SARS-CoV-2 ORF3B 0.0829 | SARS-CoV-2 ORF6 = 0.0475 | SARS-CoV-2 ORF7A 0.0477 | SARS-CoV-2 ORF7B 0.0652 | SARS-CoV-2 ORF8 = 0.0417 | SARS-CoV-2 ORF9B 0.0392 | [1] 0.0548 | SARS-CoV-2 S 0.0326
